Measurements from paper PMC4336329 (PLoS ONE, 2015).
In all, about 310,000 compounds went through this assay and about 2,200 (0.71%) showed an effect of 50% or more. Effects have a minus sign here. The list shows a part of the results.

What follows are molecules tested against human ether-à-go-go-related gene (hERG) potassium channel (human, UniProt Q12809) (assay: primary screen, population patch clamp on CHO cells stably expressing hERG).
Sequence of human ether-à-go-go-related gene (hERG) potassium channel (Q12809 whole entry, looked up): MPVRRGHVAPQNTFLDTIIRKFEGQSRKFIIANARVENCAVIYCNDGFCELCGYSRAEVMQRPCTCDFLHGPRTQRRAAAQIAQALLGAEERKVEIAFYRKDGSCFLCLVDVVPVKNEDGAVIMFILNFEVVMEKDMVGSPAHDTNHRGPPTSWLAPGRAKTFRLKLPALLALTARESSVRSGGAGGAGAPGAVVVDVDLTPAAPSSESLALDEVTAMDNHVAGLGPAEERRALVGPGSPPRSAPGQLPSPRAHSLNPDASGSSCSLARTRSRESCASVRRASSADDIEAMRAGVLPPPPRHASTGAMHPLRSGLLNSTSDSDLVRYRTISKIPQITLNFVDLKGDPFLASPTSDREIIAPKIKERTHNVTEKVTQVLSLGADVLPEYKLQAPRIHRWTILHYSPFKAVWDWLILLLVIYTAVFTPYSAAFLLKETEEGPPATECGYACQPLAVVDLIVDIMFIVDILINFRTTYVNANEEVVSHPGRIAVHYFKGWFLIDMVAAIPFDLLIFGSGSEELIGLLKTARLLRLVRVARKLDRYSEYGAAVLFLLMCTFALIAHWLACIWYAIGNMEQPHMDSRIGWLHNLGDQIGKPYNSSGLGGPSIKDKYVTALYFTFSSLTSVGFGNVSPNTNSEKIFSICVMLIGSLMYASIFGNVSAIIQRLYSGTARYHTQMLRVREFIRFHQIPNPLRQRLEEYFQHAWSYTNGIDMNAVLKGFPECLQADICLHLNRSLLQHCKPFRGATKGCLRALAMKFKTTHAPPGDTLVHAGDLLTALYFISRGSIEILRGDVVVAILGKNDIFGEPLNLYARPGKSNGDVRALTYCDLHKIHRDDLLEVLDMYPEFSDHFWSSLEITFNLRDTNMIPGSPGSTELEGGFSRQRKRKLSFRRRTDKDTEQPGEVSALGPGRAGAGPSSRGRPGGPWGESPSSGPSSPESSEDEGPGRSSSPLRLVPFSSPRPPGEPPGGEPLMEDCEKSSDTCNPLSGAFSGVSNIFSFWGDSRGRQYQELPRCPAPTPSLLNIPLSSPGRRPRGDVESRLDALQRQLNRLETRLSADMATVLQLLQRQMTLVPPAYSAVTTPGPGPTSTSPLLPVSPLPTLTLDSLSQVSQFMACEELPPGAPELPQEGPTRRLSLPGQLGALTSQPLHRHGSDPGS

Compound	hERG current change (%, negative = inhibition) at 1uM [%]
N#CCOc1ccc(C2=NO[C@@H]3[C@@H]4C[C@@H]([C@H]5C(=O)N(c6ccc7c(c6)OCO7)C(=O)[C@@H]45)[C@H]23)cc1	18.8
O=C(Nc1ccc(Nc2ccncc2)cc1)c1ccc(Nc2ccnc3ccc([N+](=O)[O-])cc23)cc1[N+](=O)[O-]	9.3
COc1ccc(Cc2nnc(NC(=O)C3CCCO3)s2)cc1 (centres unmarked)	6.5
O=C(NOC(=O)c1ccccc1F)c1ccc(OC(F)F)cc1	6.47
COc1ccc(S(=O)(=O)Nc2ccc(C(N)=O)cc2)cc1C(=O)N1CCCCCC1	17.2
O=C(Nc1ccc(N2CCN(C(=O)c3cccs3)CC2)cc1)c1cccc(F)c1	3.5
CCn1nnc(NC(=O)CSc2ccc(Cl)cc2)n1	-5.2
COCCN(CCOC)C(=O)c1c[nH]c2ccc(S(=O)(=O)N(C)c3ccc(F)cc3)cc2c1=O	-10
COc1ccc(CC(=O)Nc2nc3ccc(F)cc3s2)cc1S(=O)(=O)N1CCOCC1	3.6
CCOc1cc2c(cc1OC)C(NC(=O)c1ccco1)CC2=O (centres unmarked)	15.9
Cc1ccc2c(c1)N(CC(=O)N1CCCC1)C(=O)CO2	6.48
COc1ccc(S(=O)(=O)NC2CCCC2)c(Cl)c1Cl	16.2
CC(NC(=O)C12CC3(C)CC(C)(CC(C)(C3)C1)C2)C(=O)O (centres unmarked)	13.4
O=C(c1ccc(C(F)(F)F)cc1)C1CCCN(C(=O)Cn2cnnn2)C1 (centres unmarked)	6.42
COc1ccccc1NC(=O)CS(=O)(=O)c1cn(CC(=O)N2CCCC2)c2ccccc12	8.11
C[C@@H]1CCC[C@H](C)N1NC(=O)c1ccc(Cl)c(S(N)(=O)=O)c1	8.23
O=C(NCc1ccccc1F)c1cccs1	-4.61
O=c1[nH]cnc2scc(-c3ccc(Br)cc3)c12	9.92
O=C(Nc1ccc(F)c(F)c1)c1ccc(F)c(S(=O)(=O)N2CCOCC2)c1	-14.2
O=S(=O)(NCc1csc(-c2cccnc2)n1)c1cccs1	7.99
COc1ccc(CNC(=O)c2cc3cc(OC)ccc3oc2=O)cc1	7.06
Cc1ccc(S(=O)(=O)NC(C(=O)Oc2ccc3ccc(=O)oc3c2)c2ccccc2)cc1 (centres unmarked)	7.71
CSc1nnc(Cc2cc(=O)[nH]c(=O)[nH]2)n1-c1cccc(C)c1	7.12

Compound	hERG current change (%, negative = inhibition) at 1uM [%]
COc1ccc(NC(=O)c2cc([N+](=O)[O-])ccc2N2CCCCC2)cc1	10.3
COc1ccc(CN(C)C(=O)CNC(=O)c2ccc(C)cc2)cc1	16.7
COC(=O)c1cc(Cl)c(NC(=O)c2cc3ccccc3o2)cc1OC	7.73
C=Cn1nc(C)c2ccccc2c1=O	15.7
COCCCNC(=S)Nc1ccccc1C	16.5
Cn1c(=O)oc2cc(S(=O)(=O)N3CCCC(C(=O)NCC4COc5ccccc5O4)C3)ccc21 (centres unmarked)	12.3
O=C(NC1CCN(C(=S)Nc2ccccc2Cl)CC1)C1CCCCC1	12.5
O=C(NC(Nc1nc2ccccc2s1)(C(F)(F)F)C(F)(F)F)c1ccccc1	12.4
FC(F)Sc1ccc(-n2cc(-c3ccc(Cl)cc3)[n+]3c2CCC3)cc1.[Br-]	-28.8
CN=c1scc(-c2ccc(Cl)cc2)n1C	-1.23
Cc1cc(N=Nc2ccc(Cl)cc2)cc(CN2CCOCC2)c1O	12.7
COc1ccc(CC(=O)OCC(=O)N2CCCc3ccccc32)cc1OC	5.98
CCS(=O)(=O)N1CCC(C(=O)Nc2cccc(C(C)=O)c2)CC1	-1.8
Cc1cc(-c2nc3c4c5c(sc4[nH]c(=O)n3n2)CCC5)c(C)o1	1.54
CC1=C(C(N)=O)C(c2cccc(OCc3ccccc3)c2)n2nnnc2N1 (centres unmarked)	24.7
N#Cc1ccccc1OCC(=O)C1CC1	15.5
COc1cc(C)ccc1OCc1cc(C(=O)N(C)CCCN2CCOCC2)no1	-7.67
COc1ccc(OC)c(CCNC(=O)CSc2ccsc2[N+](=O)[O-])c1	14.7
O=C(CN1CCCCC1)NNc1nc(-c2ccccc2)c2cc(Cl)ccc2n1	-4.88
OCCC1CN(Cc2cccc(C(F)(F)F)c2)CCN1Cc1ccccc1 (centres unmarked)	2.89
NC(=O)NC(=O)CSc1nc2cc([N+](=O)[O-])ccc2n1-c1cccc(C(F)(F)F)c1	-4.93
Cn1cc(S(=O)(=O)CC(=O)Nc2ccc3c(c2)OCCO3)c2ccccc21	11.4
CCOC(=O)C1CCN(C(=O)CN(c2cccc(OC)c2)S(=O)(=O)c2ccccc2)CC1	-12.3

Compound	hERG current change (%, negative = inhibition) at 1uM [%]
O=C(OCn1nnc2ccccc2c1=O)c1cccnc1Cl	12.9
CC(=O)Nc1cccc(NS(=O)(=O)c2cccc3nsnc23)c1	7.12
C/C=C/C=N\NC(=O)c1ccncc1	15.5
O=C(Oc1c(CN2CCOCC2)cc(Cl)c2cccnc12)c1ccccc1	8.02
CN(C)CCCNC(=O)N1c2ccccc2C=Cc2ccccc21.Cl	15.7
CCCCn1c(N)c(N(CC(C)C)C(=O)c2cc(Cl)nc3ccccc23)c(=O)[nH]c1=O	5.82
Cc1cccc(CN2[C@@H](CC(C)C)COCCS2(=O)=O)c1	19.4
CC(C)c1nc(Cl)c(C#N)c2c1COC(C)(C)C2	7.04
Cc1cc(C)nc(/N=C(\N)N2CCc3ccccc32)n1	-4.32
O=[N+]([O-])c1ccccc1-c1ccc(C(=S)N2CCCCC2)o1	21.6
COc1ccc2c(C)c(CC(=O)N3CCN(C(=O)C4COc5ccccc5O4)CC3)c(=O)oc2c1C (centres unmarked)	11.8
Cc1c(-c2ccccc2)c(=O)oc2cc(O)ccc12	6.34
CCN(C(=O)CSc1nnc(-c2ccc(Cl)cc2)n1C)C1CCS(=O)(=O)C1 (centres unmarked)	9.99
Nc1cccc(-n2nncc2-c2ccccc2)c1	-15.8
CC1CCCCN1C(=O)COc1ccccc1F (centres unmarked)	7.06
O=C1COc2ccc(C(=O)c3ccccc3C(=O)NCc3ccco3)cc2N1	2.72
O=C(/C=C/c1ccc(OCCCF)cc1)N1CCN(Cc2ccccc2)CC1	-4.73
Cc1ccccc1OCC(=O)NN1C(=O)C2C3C=CC(O3)C2C1=O (centres unmarked)	11.1
Cc1ccc(N(Cc2cc(=O)[nH]c3ccccc23)C(=O)C(C)C)cc1	0.865
Cc1nc(N)nc(-c2ccccc2O)n1	17.5
CCc1ccc(OCC(=O)OCC(=O)NCCNC(=O)COC(=O)COc2ccc(CC)cc2)cc1	15.4
Cc1ccc(N=C2SC(C(=O)Nc3ccc(OC(F)(F)F)cc3)C(N)=C2C(=O)Nc2c(C)cc(C)cc2C)cc1 (centres unmarked)	8.87
O=C(C1CC=CCC1)N1CCN(C(=O)C2CC=CCC2)CC1 (centres unmarked)	13.2

Compound	hERG current change (%, negative = inhibition) at 1uM [%]
COc1cc(OC)cc(C(=O)NC(C(=O)NCCN(C)C)C23CC4CC(CC(C4)C2)C3)c1 (centres unmarked)	6.6
CC(C)C(c1nnnn1C1CCCCC1)N1CCN(C(=O)c2ccco2)CC1 (centres unmarked)	4.48
COc1cc(CNC2CCCCCC2)cc(OC)c1OC	2.94
Oc1oc(-c2ccco2)nc1C=Nc1cccc(Cl)c1	8.03
CC(=O)Nc1nc(SCc2cccc3ccccc23)n[nH]1	10.9
Cn1cc(Cl)c(C(=O)Nc2cccc(Cl)c2Cl)n1	10.3
CCC(Sc1nc2c(cnn2-c2ccc(Cl)cc2)c(=O)[nH]1)C(=O)OC (centres unmarked)	7.35
COC(=O)c1nc(N)sc1-c1ccc(Cl)cc1	14.4
NC(=O)COn1c(SCC(N)=O)nc2ccccc2c1=O	12.8
Cc1cc[n+](CC(=O)Nc2ccccc2)cc1.[Br-]	19.7
CC(C(=O)NCCCc1ccccc1)n1cccc1C(=O)c1ccccc1 (centres unmarked)	10.3
COc1ccc(/C=N\NC(=O)c2ccc([N+](=O)[O-])cc2)cc1COc1c(F)c(F)cc(F)c1F	10.6
CCCN(CCC)C(=O)c1ccc2c(c1)S(=O)(=O)c1ccccc1C2=O	-3.2
CC(=O)Nc1ccc(NC(=O)CSc2ccc(C)cc2)cc1	6.31
CCC(C)NC(=O)NC(=O)N(C1CCCCC1)S(C)(=O)=O (centres unmarked)	1.38
C=C(C)Cn1c(CCNC(=O)CCC)nc2ccccc21	21.1
Cn1c(=O)[nH]c(=O)c2c1nc(Br)n2CC(O)COc1ccccc1 (centres unmarked)	6.5
CC(OC(=O)CCc1nc2ccccc2[nH]c1=O)C(=O)c1ccccc1 (centres unmarked)	8.12
CCCN1C2CCCC1CC(NC(=O)c1cc(OC)cc(OC)c1)C2 (centres unmarked)	3.76
Cc1c(OCC(=O)NCC(O)c2ccccc2)ccc2c(-c3ccccc3)cc(=O)oc12 (centres unmarked)	10.3
